Out of some 310,000 compounds screened, about 11,000 (3.5%) were called active. This list was built around the results that the source calls inconclusive (neither active nor inactive); the mix of calls is not that of the screen. Calls follow the shape of the dose curve; as a rule, active = well fitted inhibition curve with a large enough effect; inconclusive = small, poorly fitted or top-dose-only effect, or effect the other way; inactive = flat fitted curve, though single readings scatter. Potencies of inconclusive entries are left out as doubtful fits.
Assay: VP16 counterscreen qHTS for inhibitors of ROR gamma transcriptional activity;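 also: Gal4-VP16 expression switched on by copper sulfate through the metallothionein promoter; nearly all actives have a fitted effect of over 50% in size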
Conditions: Drosophila S2 Gal4-VP16 UAS-luciferase, luminescence, 20 h; activity, negative = inhibition: at 53.6 µM (top of the series)
% is scaled to controls: 0 for no effect and ±100 for the full control effect; potency is read from the fitted curve at half-maximal effect; tags tell the direction and shape of the fitted curve.

SMILES | Potency | activity, negative = inhibition
C=CCn1c(SC(F)F)nc2scc(-c3ccco3)c2c1=O | active: 5.01 µM | –
COc1ccc(NC(=O)c2nc[nH]c2C(=O)N[C@@H](C)c2ccccc2)cc1 | active: 8.91 µM | –
O=C/C(=C\Nc1ccccn1)c1nc2cc(Cl)ccc2o1 | active: 10 µM | –
CCN(CC(=O)Nc1sc2c(c1C#N)CCC(C)C2)Cc1nc2ccccc2c(=O)[nH]1 (centres undefined) | inconclusive [inhibitor, single point] | –
CC(=O)c1ccc(N2CCN(S(=O)(=O)c3ccc4c(c3)CC(C)N4C(C)=O)CC2)cc1 (centres undefined) | inconclusive [inhibitor, single point] | –
O=C(Nc1nc2n(n1)C(c1ccc(F)cc1)CC(c1ccccc1)N2)c1ccco1 (centres undefined) | active: 7.08 µM | –
CCCCn1c(=O)n(Cc2cccc(F)c2)c(=O)c2c1ncn2Cc1ccco1 | inconclusive [inhibitor, single point] | –
O=C(c1c[nH]c(C(=O)C(Cl)(Cl)Cl)c1)c1ccccc1Br | inconclusive [inhibitor, single point] | –
Cc1c(/C=N/NC(=O)CNc2ccccc2)c2ccccn2c1C(=O)c1ccncc1 | inconclusive [inhibitor, single point] | –
CCOc1ccc(N2C(=O)CC(Sc3n[nH]c(-c4ccccc4)n3)C2=O)cc1 (centres undefined) | inconclusive [inhibitor, single point] | –
COc1ccccc1-c1ccc(SCc2ccc(C)cc2)nn1 | – | inactive: 21.3%
CCc1cccc(NS(=O)(=O)c2c(C)nc3sc(CC)nn3c2=O)c1 | – | inactive: -0.288%
Cc1ccc(N/N=C(\C#N)C(N)=S)cc1C | inconclusive [inhibitor, single point] | –
Fc1cccc(CNc2ncnc3cc(Cl)ccc23)c1F | inconclusive [inhibitor, single point] | –
Cc1ccc(-c2nsc3c(N4CCC(C(N)=O)CC4)ncnc23)cc1 | active: 0.631 µM | –
CC(=O)c1ccc(N/N=C(/C(N)=O)C2=NC(C)(C)Cc3ccccc32)cc1 | inconclusive [activator, single point] | –
COc1ccccc1N1CCN(C(=O)COc2cc(C)cc3oc(=O)cc(C)c23)CC1 | – | inactive: -6.35%
O=C(CSS(=O)(=O)O)N1CCN(C(=O)c2ccoc2)CC1 | – | inactive: -5.85%
COc1cc(NC(=O)c2cc(-c3cccnc3)nc3ccc(C)cc23)c(OC)cc1Cl | – | inactive: -7.43% [at 0.365 µM]
Cn1cnc([N+](=O)[O-])c1Sc1nnc(-c2cccnc2)n1C | inconclusive [inhibitor, single point] | –
CCn1ccnc1CN(C)Cc1cn(-c2ccc(C)cc2)nc1-c1ccc(F)cc1 | active: 15.8 µM | –
CC(C)c1ccc(OCc2ccc(C(=O)N3CCCC3)o2)cc1 | inconclusive [inhibitor, single point] | –
O=C(NC1=NCCS1)C12CC3CC(CC(C3)C1)C2 | active: 22.4 µM | –
Fc1ccc(-c2cn3ccccc3n2)cc1 | inconclusive [inhibitor, single point] | –
Cc1ccccc1OCC(O)CN1CCC(C)CC1 (centres undefined) | – | inactive: -16.6%

SMILES | Potency | activity, negative = inhibition
CCOC(=O)COc1ccc(S(=O)(=O)Nc2ccc(C)cc2)cc1 | inconclusive [inhibitor, single point] | –
Cc1cccc(OCc2occc2C(=O)Nc2cccc(-n3cnnn3)c2)c1 | – | inactive: -1.7%
COC(=O)c1ccc2c(=O)n(-c3ccccc3F)c(=S)[nH]c2c1 | active: 5.62 µM | –
CCOC(=O)CCSc1nc(C)c2cc(OC)ccc2n1 | inconclusive [activator, partial curve, poor fit] | –
O=C(O)C1CCC(CNS(=O)(=O)c2ccccc2)CC1 (centres undefined) | – | inactive: 1.79%
CCOC(=O)C1CCCN(c2c(Nc3ccc(C)c(C)c3)c(=O)c2=O)C1 (centres undefined) | – | inactive: -4.27%
Cc1ccc(Nc2nc(N)nc(CCl)n2)c(C)c1 | inconclusive [inhibitor, single point] | –
Cc1cccc(OCC(=O)N/N=C\c2cn(C)c3ccccc23)c1 | inconclusive [inhibitor, single point] | –
CN=C1S/C(=C\c2cc(C)n(-c3ccccc3F)c2C)C(=O)N1C | active: 17.8 µM | –
O=S(=O)(c1ccc2c(c1)OCCO2)N(Cc1ccc(F)cc1)Cc1nnc(-c2cccs2)o1 | – | inactive: -5.15%
COc1ccc(COC(=O)N/N=C2/C[C@@H](O)[C@@H](O)[C@@H]3[C@@H]4C(=O)N(C[C@@H]5CCCO5)C(=O)[C@H]4CC[C@@H]23)cc1 | – | inactive: -2.5% [at 10 µM]
CCCc1nc2oc3c(NCCCN(C)C)ncnc3c2c2c1CCCC2 | inconclusive [inhibitor, single point] | –
Cc1ccccc1OCc1nnc(SCCN2CCCC2)n1-c1ccccc1 | inconclusive [inhibitor, single point] | –
Cc1ccc(NC(=O)Nc2ccc3c(c2)OCO3)c(OC(F)F)c1 | – | inactive: 3.48%
CCN(CC)CC(O)CCCCCCCCC(=O)OC (centres undefined) | – | inactive: -2.92%
Nn1c(SCC(=O)NCCCc2ccccc2)nnc1-c1cccnc1 | – | inactive: -16.1%
CCOC(=O)c1cc2c(=O)n3ccccc3nc2n(CC(C)C)c1=NC(=O)c1c(-c2c(F)cccc2Cl)noc1C | inconclusive [inhibitor, partial curve] | –
CC(C)C(=O)Nc1nc2cc3c(cc2s1)OCO3 | inconclusive [activator, full curve, poor fit] | –
Cc1ccccc1NC(=O)Cc1nc(COC(=O)C(C)C)cs1 | – | inactive: -4.8%
Cc1cccc(Nc2nc(N)nc(CC(=O)CSc3ccc(Cl)cc3)n2)c1 | inconclusive [inhibitor, single point] | –
COc1ccccc1N1C(=O)C2CC(C)=C(C)CC2C1=O (centres undefined) | – | inactive: -6.43%
Cc1cccc(-n2c(C)cc(C(=O)NC3CCCCC3)c2C)c1 | inconclusive [inhibitor, single point] | –
O=c1[nH]c(-c2ccncc2)nc2ccccc12 | – | inactive: -2.79%
CC(=O)Oc1ccc(C(=O)[C@H]2[C@H]3C(=O)N(c4ccccc4)C(=O)[C@H]3[C@@H]3C=CC=NN32)cc1 | inconclusive [inhibitor, single point] | –
O=C(N/N=C/c1ccc([N+](=O)[O-])cc1)c1ccc2nc[nH]c2c1 | – | inactive: -13.1%

SMILES | Potency | activity, negative = inhibition
CCCCN(CC)CCNC(=O)Cn1cc2c(n1)-c1c(oc(C(=O)N3CCCC3)c1C)CC2 | inconclusive [inhibitor, single point] | –
Cn1c(C(=O)N2CCCC2)cc2c(=O)n(C)c3ccccc3c21 | – | inactive: 20%
Cc1cc(Br)ccc1NC(=S)Nc1cccc([N+](=O)[O-])c1 | inconclusive [inhibitor, single point] | –
Fc1ccc(CN2CCCN(Cc3nc(-c4ccc5c(c4)OCO5)no3)CC2)cc1 | – | inactive: -3.76%
CCc1ccc(NC(=S)N2CCCC(C(F)(F)F)C2)cc1 (centres undefined) | inconclusive [inhibitor, partial curve] | –
CN(C)S(=O)(=O)c1ccc2[nH]cc(/C=C/c3nc4ccccc4c(=O)n3-c3ccccc3)c2c1 | – | inactive: -9.35%
CCOC(=O)CNC(=O)CSc1ncnc2c1cnn2-c1ccc(Cl)cc1 | – | inactive: 2.82%
CN1/C(=C/C=N/n2cnnc2)C(C)(C)c2ccccc21 | active: 17.8 µM | –
CCN(CC)P(=O)(Nc1cccc(C(F)(F)F)c1)c1ccc(N(C)C)cc1NC(=O)c1ccco1 (centres undefined) | – | inactive: -10.8%
Cc1ccc2c(c1)N=C(c1ccccc1)CC(C(Cl)Cl)=N2 | inconclusive [inhibitor, partial curve, poor fit] | –
CCOc1cc(NC(=S)NCCc2ccccc2)c(OCC)cc1NC(C)=O | – | inactive: -17.7%
COc1ccc(-c2noc(-c3ccoc3C)n2)cc1 | inconclusive [activator, partial curve] | –
COc1ccccc1NS(=O)(=O)c1cccc(C(=O)N/N=C(\C)c2ccc3c(c2)OCCO3)c1 | inconclusive [inhibitor, single point] | –
CC(=O)N1CCN(C(=O)CSc2cc(C)c(Br)cc2C)CC1 | – | inactive: -14.6%
Cn1c(=O)c(C(=O)Nc2ncccc2O)c(O)c2ccccc21 | inconclusive [inhibitor, partial curve] | –
Cc1ccccc1-c1nc(-c2ccc(NC(=O)c3ccc4c(c3)OCO4)cc2)no1 | inconclusive [inhibitor, single point] | –
CCOc1cccc(/C=C/c2cc(C(=O)O)c3ccccc3n2)c1OC | inconclusive [inhibitor, partial curve] | –
Cc1ccc(-c2nc3ccccc3o2)cc1NC(=S)NC(=O)/C=C/c1ccco1 | inconclusive [inhibitor, single point] | –
Cc1c(Cn2ccnc2)c2ccccc2n1CCC(=O)O | – | inactive: 3.34%
Cc1ccc(-n2c(=O)c3cc4c(=O)n(-c5ccc(C)c(C)c5)c(=O)c4c(C(=O)c4ccc(C(=O)O)cc4)c3c2=O)cc1C | – | inactive: -1.84%
O=[N+]([O-])c1ccc(N/N=C/c2c[nH]c3ccccc23)c(S(=O)(=O)Nc2ccc(Cl)cc2)c1 | inconclusive [inhibitor, single point] | –
CCOC(=O)C1(Cc2ccc(OC)cc2)CCN(C(=O)CN2CCOC2=O)CC1 | inconclusive [activator, partial curve] | –
COc1ccccc1Cn1c(=S)[nH]c2cc(C(=O)NCCN3CCOCC3)ccc2c1=O | inconclusive [inhibitor, single point] | –
N#CCn1cc(/C=N/NC(=O)c2cc3c(ccc4ccccc43)o2)c2ccccc21 | – | inactive: 4.44%

— PubChem BioAssay AID2546 (National Center for Advancing Translational Sciences (NCATS), 2010)
